Assay results published in PubChem BioAssay AID588855 (National Center for Advancing Translational Sciences (NCATS), 2011).
Among all 410,000 compounds or so, about 5,000 (1.2%) were called active. The shares of active, inactive and inconclusive entries below differ from those in the screen. Calls follow the shape of the dose curve; as a rule, active = well fitted inhibition curve with a large enough effect; inconclusive = small, poorly fitted or top-dose-only effect; inactive = no such curve, though single readings can be large or run the other way. A potency beside an inconclusive call is a rough fit, not a confirmed value.

Experiment: qHTS for Inhibitors of TGF-b; also: nearly all actives have a fitted effect of over 65% in size
Conditions: HepG2 CAGA-GFP TGF-b/SMAD3 reporter, GFP fluorescence, 18 h, TGF-beta stimulated, 500 pg/mL final; series mostly up to 46.1 µM
In short: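 Inhibition of TGF-beta-driven CAGA-GFP reporter expression in HEPG2 cells is measured by cellular GFP fluorescence after 18 h stimulation with 500 pg/mL recombinant TGF-beta in 1% FBS medium at 37 degrees C.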
Potency is read from the fitted curve at half-maximal effect; tags tell the direction and shape of the fitted curve.

Compound | Potency
COc1ccc(Cn2c(CCC(=O)NCc3ccco3)nc3cccnc32)cc1 | inactive
COCCNC(=O)C1Cc2c(ccc3ccccc23)O1 (centres undefined) | inactive
O=C(O)c1c2c(nc3ccc(Cl)cc13)CCC2 | inconclusive: 0.112 µM [inhibitor, full curve, poor fit]
CCCCCCOC(=O)C1=C(C)NC(=O)NC1c1ccc(O)cc1 (centres undefined) | inconclusive: 35.5 µM [inhibitor, single point]
Cc1cccc(-c2nnn3c2nc(NCCc2ccc(S(N)(=O)=O)cc2)c2cc(Cl)ccc23)c1 | inconclusive: 7.08 µM [inhibitor, partial curve]
N#Cc1ccc(Nc2nc(-c3ccccc3)c(C(=O)c3ccccc3)s2)cc1 | inconclusive: 15.8 µM [inhibitor, partial curve, poor fit]
CC(C)CC1C(=O)N(Cc2cn(CCC3OCCO3)nn2)CCS(=O)(=O)N1Cc1ccc(-c2ccc(F)nc2)cc1 (centres undefined) | inactive
O=C(O)C1CCN(C(=O)c2ccc(Cl)cc2)CC1 | inactive
N#CC(=C(O)COC(=O)c1ccc2c(c1)OCCO2)c1nc2ccccc2[nH]1 | inconclusive: 35.5 µM [inhibitor, single point]
CCOC(=O)c1cc2c(C)n(-c3ccc(OCC)cc3)c(C)c2ccc1=O | inconclusive: 20 µM [inhibitor, single point]
Cc1cc(C)cc(OCCCOc2cccc3cccnc23)c1 | inconclusive: 35.5 µM [inhibitor, single point]
COC(=O)C(NS(=O)(=O)c1ccc(NC(C)=O)cc1)C(C)C (centres undefined) | inactive
Cc1cccc(C)c1N(CC(=O)N1CCCC1)S(C)(=O)=O | inactive
O=C(CCN1C(=O)c2ccccc2S1(=O)=O)Nc1ccc(Cl)cc1 | inactive
N/C(=N\NC(=O)c1ccc(F)cc1)c1cc2ccccc2oc1=O | inconclusive: 3.55 µM [inhibitor, single point]
CC1=CC(C)(C)N(C(=O)CSc2nnc(-c3ccccc3)o2)c2ccc(C)cc21 | inconclusive: 35.5 µM [inhibitor, single point]
CC(=O)Nc1ccc(SCC(Cc2ccccc2)N2CCN(CCc3ccccc3)CCC2=O)cc1 (centres undefined) | inconclusive: 35.5 µM [inhibitor, single point]
Cc1cc(-c2ccccc2C(=O)Nc2ccccc2O)on1 | inactive
Cn1c(=O)[nH]c(=O)c2c1nc(N/N=C/c1cccnc1)n2Cc1ccc(Cl)cc1 | inactive
Fc1ccc(-c2cc3nc4c(c(N5CCOCC5)n3n2)CCCC4)cc1 | inconclusive: 12.6 µM [inhibitor, single point]
C=C1CCN(C(Cc2ccccc2)C(=O)NCc2ccc(Cl)c(Cl)c2)S(=O)(=O)c2ccccc21 (centres undefined) | inconclusive: 12.6 µM [inhibitor, partial curve]
CCn1c(SCC(=O)N/N=C/C=C\c2ccccc2[N+](=O)[O-])nnc1-c1ccccc1 | inactive
Cc1nc2ccccc2n1CC(=O)NCc1ccccc1 | inactive

Compound | Potency
CCC(C)c1ccc(-c2cc(C(=O)OCC(=O)Nc3cc(C)on3)c3ccccc3n2)cc1 (centres undefined) | inactive
CCn1cc(C(=O)NCc2ccccc2OC)c(=O)c2cc(S(=O)(=O)N3CCCCC3)ccc21 | inconclusive: 1.78 µM [inhibitor, partial curve, poor fit]
CC(C)CCn1c(COc2ccccc2)n[nH]c1=S | inactive
CC1OC(Nc2cccc3ccccc23)C(O)C(O)C1O (centres undefined) | inconclusive: 25.1 µM [inhibitor, single point]
C#CCOc1ccc(-c2nnc(Nc3cccc(C)c3)c3ccccc23)cc1 | inconclusive: 35.5 µM [inhibitor, partial curve, poor fit]
Cc1cccc(C(=O)N[C@H](C(=O)Nc2ncc(C)s2)C(C)C)c1 | active: 11.2 µM
COc1ccc(-c2csc(Nc3ccc(S(N)(=O)=O)cc3)n2)cc1OC | inactive
CCOc1ccc(S(=O)(=O)Nc2ccc(C(=O)NCC3(N4CCCCC4)CCCCC3)cc2)cc1 | inconclusive: 20 µM [inhibitor, single point]
Cc1[nH]n(-c2ccccc2)c(=O)c1/C=N/N(c1ccccc1)c1ccccc1 | inconclusive: 12.6 µM [inhibitor, single point]
COc1cc(OC)c(/C=C/c2ccnc3ccccc23)c(OC)c1 | inconclusive: 35.5 µM [inhibitor, single point]
CSc1nn(Cc2ccc(Cl)cc2)c(N(C(C)=O)C(C)=O)c1S(=O)(=O)c1ccccc1 | inconclusive: 22.4 µM [inhibitor, single point]
COc1ccccc1N1CCN(C(=O)c2ccc3c(Cl)c4c(nc3c2)CCCC4)CC1 | active: 11.2 µM
O=C(CNC(=S)NC(=O)c1ccc(Cl)cc1)c1ccccc1 | inactive
N#Cc1c(NC(=O)COC(=O)C2CC3C=CC2C3)oc(-c2ccccc2)c1-c1ccccc1 (centres undefined) | inconclusive: 0.398 µM [inhibitor, full curve, poor fit]
Cc1oc2cc3oc(=O)c(CCC(=O)N(C)CC(=O)O)c(C)c3cc2c1C | inactive
COc1ccc(S(=O)(=O)Nc2cccc3c2O[C@H](CN(C)S(=O)(=O)c2ccc(F)cc2)[C@H](C)CN([C@H](C)CO)C3=O)cc1 | inconclusive: 15.8 µM [inhibitor, single point]
O=C1c2ccccc2C(=O)c2c1cccc2N1CCCC1 | inconclusive: 22.4 µM [inhibitor, single point]
COc1ccc(CNC(=O)CCc2c(C)nc3cc(-c4ccccc4OC)nn3c2C)cc1 | inconclusive: 15.8 µM [inhibitor, single point]
Cc1cc(O)c(C2(O)C(=O)Nc3cc(Br)ccc32)cc1C (centres undefined) | inconclusive: 22.4 µM [inhibitor, single point]
O=C(Nc1ccccn1)c1csc2c1CCCC2 | inactive
Cc1ccc2nc(N3CCN(C(=O)C4CC4)CC3)sc2c1 | inactive
Cc1ccc(CCc2nnc(SCC(=O)Nc3ccccc3Cl)n2-c2ccccc2)o1 | inactive
CC(NC(=O)CCC(=O)c1cccs1)c1ccccc1 (centres undefined) | inconclusive: 5.62 µM [inhibitor, single point]

Compound | Potency
Cc1ccc(NS(=O)(=O)c2ccc3nc(-c4ccccc4)[nH]c3c2)c(Cl)c1 | inconclusive: 35.5 µM [inhibitor, single point]
COc1cccc(C(=O)COC(=O)CCC(=O)NC2CCCCC2)c1 | inconclusive: 0.562 µM [inhibitor, partial curve, poor fit]
CN(C(=O)c1ccc(NC(=O)Cc2cccc(NC(=O)C3CCCN(C(=O)CCc4ccccc4)C3)c2)cc1)C1CCCC1 (centres undefined) | inconclusive: 10 µM [inhibitor, partial curve, poor fit]
COc1ccccc1N(C(=O)CNS(=O)(=O)c1ccccc1)C(C(=O)NCc1ccco1)C(C)C (centres undefined) | inconclusive: 35.5 µM [inhibitor, single point]
O=C(Cn1c(-c2ccccn2)nc2ccccc21)N/N=C/c1cccnc1 | inactive
Cc1ccc2c(c1)-c1nc(-c3ccc4c(c3)NC(=O)CO4)cc(-c3ccc(Cl)cc3)c1CO2 | inconclusive: 6.31 µM [inhibitor, single point]
CCC(=O)Nc1cccc(NC(=S)NC(=O)c2cccc(C)c2)c1 | inconclusive: 11.2 µM [inhibitor, single point]
COc1ccc(/C=C2\SC(=S)N(CC3CCCO3)C2=O)cc1 (centres undefined) | inactive
Oc1ccc(N=Cc2ccc(O)c(O)c2)cc1 | inconclusive: 6.31 µM [inhibitor, partial curve]
C=C(C)C1CC=C(C)/C(=N/NC(=O)C2CC2c2ccccc2)C1 (centres undefined) | inactive
O=C(Oc1ccc(F)cc1)c1nc(SCc2ccccc2F)ncc1Cl | inactive
Cc1oc2ncn(C)c(=O)c2c1C(=O)N1CCN(c2ccccc2)CC1 | inconclusive: 7.08 µM [inhibitor, full curve, poor fit]
CCCC(=O)N(c1ccc2oc(C)c(C(C)=O)c2c1)S(=O)(=O)c1ccc(C(=O)O)cc1 | inconclusive: 35.5 µM [inhibitor, single point]
O=C(NC(=S)N1CCOCC1)C12CCC3CC(CC(C3)C1)C2 | inactive
COc1ccccc1C(=O)NC1(C(F)(F)F)C(=O)Nc2c1c(=O)[nH]c(=O)n2-c1ccccc1 (centres undefined) | inactive
Oc1ccc(C[C@H]2CNC(=S)N2CC2CCCN2C[C@H](Cc2ccccc2)N2C[C@H](Cc3ccc(O)cc3)N(CCc3ccccc3)C2=S)cc1 (some centres undefined) | active: 7.94 µM
C[C@@H]1CN(S(=O)(=O)c2c(F)cccc2F)CCN1S(=O)(=O)c1ccc2c(c1)OCCO2 | inconclusive: 15.8 µM [inhibitor, single point]
O=S(=O)(c1cccc(Cl)c1)N1CN(CC2CCCO2)c2nc3ccccc3nc21 (centres undefined) | inconclusive: 35.5 µM [inhibitor, single point]
CCc1cc2cc(C)ccc2nc1SCC(=O)N1CCN(C(=O)c2ccco2)CC1 | inconclusive: 14.1 µM [inhibitor, single point]
OC(CSc1ccccc1)CN1CCN(c2cccc(Cl)c2)CC1 (centres undefined) | inactive
CC(C)(C)OC(=O)C[C@@H]1C/C=C\C[C@H](CC(=O)N(CCO)Cc2ccccc2)C(=O)N[C@@H](Cc2c[nH]c3ccccc23)COC1=O | inconclusive: 10 µM [inhibitor, partial curve]
COc1cccc(CNC(=O)c2cc3c(s2)-c2c(C)cccc2OC3)c1 | inconclusive: 25.1 µM [inhibitor, single point]
Cc1cccc(C)c1OCC(O)Cn1nnc2ccccc21 (centres undefined) | inconclusive: 12.6 µM [inhibitor, partial curve, poor fit]
